Laboratory results: the supplement of paper PMC2702839
Where a name gives a salt, the structure may show the parent alone. This is one part of the list.

What follows are molecules tested on Schistosoma mansoni schistosomula (assay: phenotypic hit in primary schistosomula screen (any phenotype vs DMSO control) (binary (1 = hit, 0 = no phenotype)); higher = active (phenotype induced)). Conditions: 1 µM; time (d): 7.

Phenotypic hit, inactive:
OCC(S)CS (stereo not drawn) [dimercaptopropanol] 0
Oc1ccc2c(c1)O[C@H](c1ccc(O)c(O)c1)[C@@H](O)C2 [fisetinidol] 0
O=C(O)/C=C(\CC(=O)O)C(=O)O [aconitic acid] 0
Cc1c(C)c2c(c(C)c1O)CCC(C)(CCCC(C)CCCC(C)CCCC(C)C)O2 (stereo not drawn) [alpha-tochopherol] 0
CC(=O)O[C@]1(C(C)=O)CC[C@H]2[C@@H]3C=C(C)C4=CC(=O)CC[C@]4(C)[C@H]3CC[C@@]21C [megestrol acetate] 0
CC(=O)OC1CC(OC(C)=O)C2(C)C(CC(OC(C)=O)C3(C)C2CCC2(C)C(c4ccoc4)OC(=O)C4OC423)C1(C)C (stereo not drawn) [7-epikhivorin] 0
COc1cc(O)c(C(=O)c2ccccc2)cc1O [cearoin] 0
OCC(O)C(O)C(O)CO (stereo not drawn) [adonitol/arabitol] 0
C=C1CCC(=O)C(C)CCC2C1CC2(C)C (stereo not drawn) [dihydrocaryophyllen-5-one] 0
O=c1oc2ccccc2cc1O [3-hydroxycoumarin] 0
COc1cccc(/C=C/C(=O)O)c1C(C)C [2-isopropyl-3-methoxycinnamic acid] 0
O=C1OC(=O)[C@H]2[C@@H]1[C@@H]1CC[C@H]2O1 [norcantharidin] 0
O=c1[nH]c2cc(Cl)c(Cl)cc2[nH]c1=O [6,7-Dichloroquinoxaline-2,3-dione] 0
CC(C)NC(=N)NC(=N)Nc1ccc(Cl)cc1 [chlorguanide hydrochloride] 0
C[C@]12CCC3c4ccc(OS(=O)(=O)O)cc4CCC3C1CC[C@H]2O (stereo partly drawn) [estradiol-3-sulfate, sodium salt] 0
CCCC(=O)O[C@]1(C(=O)CO)CC[C@H]2[C@@H]3CCC4=CC(=O)CC[C@]4(C)[C@H]3[C@@H](O)C[C@@]21C [hydrocortisone butyrate] 0
CC1(C)S[C@@H]2[C@H](NC(=O)COc3ccccc3)C(=O)N2[C@H]1C(=O)O [penicillin v potassium] 0
COc1ccc2c3c1O[C@H]1C[C@@H](O)C=C[C@@]31CCN(C)C2 [galanthamine hydrobromide] 0
O=c1[nH]c(=O)n([C@H]2C[C@H](O)[C@@H](CO)O2)cc1C(F)(F)F [trifluridine] 0
CN(C)c1nc(N)c(C(=O)N=C(N)N)nc1Cl [n,n-dimethylamiloride] 0
Cc1nnc(SCC2=C(C(=O)O)N3C(=O)[C@@H](NC(=O)Cn4cnnn4)[C@H]3SC2)s1 [cefazolin sodium] 0
COc1cc2c(cc1OC)[C@@H]1C(=O)c3ccc4c(c3O[C@@H]1CO2)C=CC(C)(C)O4 [deguelin] 0
S=c1[nH]cnc2nc[nH]c12 [mercaptopurine] 0
C[C@H]1O[C@@H](O[C@H]2[C@@H](O)C[C@H](O[C@H]3[C@@H](O)C[C@H](O[C@H]4CC[C@@]5(C)[C@H](CC[C@@H]6[C@@H]5CC[C@]5(C)[C@@H](C7=CC(=O)OC7)CC[C@]65O)C4)O[C@@H]3C)O[C@@H]2C)C[C@H](O)[C@@H]1O [digitoxin] 0
CCCCCCCCNC(C)C(O)c1ccc(SC(C)C)cc1 (stereo not drawn) [suloctidil] 0
CC(=O)/C=C\[C@@H]1[C@@]2(C)CCCC(C)(C)C2CC[C@@]1(C)O (stereo partly drawn) [8-hydroxy-15,16-bisnor-11-labden-13-one] 0
CC(C)[C@@H]1CC[C@@H](C)CC1=O [menthone] 0
CC(C)C1COc2cc3oc(=O)ccc3cc2O1 (stereo not drawn) [dihydro-obliquin] 0
CC1=CC2C(CC1=O)C(C)=CCC2C(C)C (stereo not drawn) [muurolladie-3-one] 0
CN(Cc1ccc(C(C)(C)C)cc1)Cc1cccc2ccccc12 [butenafine hydrochloride] 0
NCCCCN [putrescine dihydrochloride] 0
O=C1N=C(O)NC1(c1ccccc1)c1ccccc1 [Phenytoin sodium] 0
COc1cc2ccc(=O)oc2cc1O [scopoletin] 0
COc1cc(NS(=O)(=O)c2ccc(N)cc2)nc(OC)n1 [sulfadimethoxine] 0
Cc1cccc(Nc2ccncc2S(=O)(=O)NC(=O)NC(C)C)c1 [torsemide] 0
CC(=O)O[C@@H]1CC[C@@]2(C)C(C[C@@H](OC(C)=O)[C@@]3(C)C4=CC(=O)O[C@@H](c5ccoc5)[C@]4(C)CCC23)C1(C)C (stereo partly drawn) [3alpha-acetoxydihydrodeoxygedunin] 0
Cc1cc(O)c(C)c2c1C(=O)Oc1c(C)c(O)c(C(=O)O)c(C)c1O2 [hypoprotocetraric acid] 0
C=C(C)[C@H]1COc2cc3oc(=O)ccc3cc2O1 [obliquin] 0
CC(C)CCC[C@@H](C)[C@H]1CC[C@H]2[C@@H]3CC[C@H]4CC(=O)CC[C@]4(C)[C@H]3CC[C@]12C [cholestan-3-one] 0
CC(=O)O[C@H]1C[C@@H](O)C(C)(C)[C@@H]2C[C@@H](OC(C)=O)[C@]3(C)[C@H](CC[C@@]4(C)[C@@H](c5ccoc5)OC(=O)[C@H]5O[C@@]534)[C@@]12C [3-deacetylkhivorin] 0
NC(=O)N1c2ccccc2CC(=O)c2ccccc21 [oxcarbazepine] 0
C/C=C(/C)C(=O)O[C@H]1Cc2c(ccc3ccc(=O)oc23)OC1(C)C [selinidin] 0
CC(=O)OCC(=O)[C@@]1(O)[C@H](OC(C)=O)C[C@H]2[C@@H]3CCC4=CC(=O)C=C[C@]4(C)[C@@]3(F)[C@@H](O)C[C@@]21C [triamcinolone diacetate] 0
O=c1cc(-c2ccc(O)cc2)oc2cc(O[C@@H]3O[C@H](CO)[C@@H](O)[C@H](O)[C@H]3O)cc(O)c12 [cosmosiin] 0
Cc1c(NC(C)C)c(=O)n(-c2ccccc2)n1C [ramifenazone] 0
COc1c(C(=O)O)ccc2c1CCC(C)(C)O2 [dihydro-beta-tubaic acid] 0
CC(C[N+](C)(C)C)OC(N)=O (stereo not drawn) [Bethanechol chloride] 0
COc1ccc([C@@H]2Sc3ccccc3N(CCN(C)C)C(=O)[C@@H]2OC(C)=O)cc1 [diltiazem hydrochloride] 0
Cc1cn([C@H]2C[C@H](N=[N+]=[N-])[C@@H](CO)O2)c(=O)[nH]c1=O [zidovudine [azt]] 0
COc1ccc(-c2c(O)c3cc4c(c(CC=C(C)C)c3oc2=O)OC(C)(C)CC4)cc1 [dihydrolonchocarpenin] 0
COC(=O)c1c(C)c2c(c(C)c1O)OC(=O)c1c(C)c(Cl)c(O)c(Cl)c1O2 [leoidin] 0
Cc1ccc(C)c(OCCCC(C)(C)C(=O)O)c1 [gemfibrozil] 0
O=C(O)c1cc(O)c2c(c1)C(=O)c1cc(O)cc(O)c1C2=O [emodic acid] 0
O=C(CCCN1CCC(O)(c2ccc(Cl)cc2)CC1)c1ccc(F)cc1 [Haloperidol] 0
NCCC(=O)c1ccccc1N [kynuramine] 0
COc1cc2c(cc1OC)[C@@H]1Cc3ccc(OC)c(OC)c3CN1CC2 [tetrahydropalmatine] 0
COc1cc2c(cc1OC)C1C(=O)c3c(cc4c(c3O)C=CC(C)(C)O4)OC1CO2 (stereo not drawn) [beta-toxicarol] 0
NCC(=O)CCC(=O)O [aminolevulinic acid hydrochloride] 0
NC(=O)c1ccc[n+]([C@@H]2O[C@H](COP(=O)([O-])OP(=O)(O)OC[C@H]3O[C@@H](n4cnc5c(N)ncnc54)[C@H](O)[C@@H]3O)[C@@H](O)[C@H]2O)c1 [nadide] 0
COc1c2ccoc2cc2oc(C)cc(=O)c12 [visnagin] 0
C[C@@H]1CC[C@@]2(OC1)O[C@H]1C[C@H]3[C@@H]4CC[C@@H]5CC(=O)CC[C@]5(C)[C@H]4CC[C@]3(C)[C@H]1[C@@H]2C [smilagenone] 0
COc1ccc(CN(CCN(C)C)c2ncccn2)cc1 [thonzylamine hydrochloride] 0
CCCCCC(=O)Cc1cc(O)cc(O)c1C(=O)Oc1cc(CC(=O)CCCCC)c(C(=O)O)c(OC)c1 [arthonioic acid] 0
CN1C(C(=O)Nc2ccccn2)=C(O)c2ccccc2S1(=O)=O [piroxicam] 0
COCCOC(=O)C1=C(C)NC(C)=C(C(=O)OC(C)C)C1c1cccc([N+](=O)[O-])c1 (stereo not drawn) [Nimodipine] 0
NCCS [Cysteamine hydrochloride] 0
C[C@H]1C/C=C/[C@H]2[C@H](O)[C@](C)(O)[C@@H](C)[C@H]3[C@H](Cc4ccccc4)NC(=O)[C@]32[C@H](O)/C=C/[C@](C)(O)C1 [cytochalasin r] 0
CC1(C)[C@@H](O)CC[C@]2(C)[C@H]3C(=O)C=C4[C@@H]5C[C@@](C)(C(=O)O)CC[C@]5(C)CC[C@@]4(C)[C@]3(C)CC[C@@H]12 [enoxolone] 0
